{"source": "the supplement of paper PMC10724272", "note": "MIC of invasive clinical C. tropicalis isolates, CLSI broth microdilution (fluconazole 0.12-256 mg/L, up to 1,024 for the azole-resistant cluster and its neighbour group; other ranges not stated); higher = less susceptible. Call: susceptible or wild type [S] / resistant or non-wild type [R] by CLSI breakpoints or cut-offs; intermediate and dose-dependent carry no call. '<=' and '>=' at the end values are inferred; the source marks only some of them. Isolates are numbered anew."}
{"compound": "C[C@@H](c1ncncc1F)[C@](O)(Cn1cncn1)c1ccc(F)cc1F [voriconazole]", "test": "CLSI broth microdilution."}
{"test system": "Candida tropicalis isolate 266 (ERG11 copies: 2, Erg11p: no key change)", "MIC": "0.12 mg/L [S]"}
{"test system": "Candida tropicalis isolate 271 (ERG11 copies: 2, Erg11p: no key change)", "MIC": "0.03 mg/L [S]"}
{"test system": "Candida tropicalis isolate 63 (ERG11 copies: 2, Erg11p: no key change)", "MIC": "0.06 mg/L [S]"}
{"test system": "Candida tropicalis isolate 386 (ERG11 copies: 2, Erg11p: no key change)", "MIC": "0.12 mg/L [S]"}
{"test system": "Candida tropicalis isolate 23 (ERG11 copies: 2, Erg11p: no key change)", "MIC": "0.25 µg/mL"}
{"test system": "Candida tropicalis isolate 72 (ERG11 copies: 2, Erg11p: no key change)", "MIC": "0.5 µg/mL"}
{"test system": "Candida tropicalis isolate 430 (ERG11 copies: 2, Erg11p: no key change)", "MIC": "≤ 0.008 mg/L [S]"}
{"test system": "Candida tropicalis isolate 147 (ERG11 copies: 2, Erg11p: no key change)", "MIC": "0.12 mg/L [S]"}
{"test system": "Candida tropicalis isolate 309 (ERG11 copies: 2, Erg11p: no key change)", "MIC": "≤ 0.008 mg/L [S]"}
{"test system": "Candida tropicalis isolate 262 (ERG11 copies: 2, Erg11p: no key change)", "MIC": "0.12 mg/L [S]"}
{"test system": "Candida tropicalis isolate 31 (ERG11 copies: 2, Erg11p: no key change)", "MIC": "0.25 µg/mL"}
{"test system": "Candida tropicalis isolate 397 (ERG11 copies: 7, Erg11p: Y132F, S154F (heterozygous))", "MIC": "≥ 8 mg/L [R]"}
{"test system": "Candida tropicalis isolate 419 (ERG11 copies: 2, Erg11p: no key change)", "MIC": "0.06 mg/L [S]"}
{"test system": "Candida tropicalis isolate 314 (ERG11 copies: 2, Erg11p: no key change)", "MIC": "0.06 mg/L [S]"}
{"test system": "Candida tropicalis isolate 361 (ERG11 copies: 2, Erg11p: no key change)", "MIC": "0.03 mg/L [S]"}
{"test system": "Candida tropicalis isolate 26 (ERG11 copies: 2, Erg11p: no key change)", "MIC": "0.015 mg/L [S]"}
{"test system": "Candida tropicalis isolate 441 (ERG11 copies: 2, Erg11p: no key change)", "MIC": "0.25 µg/mL"}
{"test system": "Candida tropicalis isolate 8 (ERG11 copies: 2, Erg11p: no key change)", "MIC": "0.25 µg/mL"}
{"test system": "Candida tropicalis isolate 237 (ERG11 copies: 7, Erg11p: Y132F, S154F (heterozygous))", "MIC": "≥ 8 mg/L [R]"}
{"test system": "Candida tropicalis isolate 413 (ERG11 copies: 8, Erg11p: Y132F, S154F (heterozygous))", "MIC": "≥ 8 mg/L [R]"}
{"test system": "Candida tropicalis isolate 387 (ERG11 copies: 2, Erg11p: no key change)", "MIC": "0.03 mg/L [S]"}
{"test system": "Candida tropicalis isolate 215 (ERG11 copies: 2, Erg11p: Y257H (homozygous))", "MIC": "0.25 µg/mL"}
{"test system": "Candida tropicalis isolate 345 (ERG11 copies: 2, Erg11p: no key change)", "MIC": "0.12 mg/L [S]"}
{"test system": "Candida tropicalis isolate 122 (ERG11 copies: 2, Erg11p: no key change)", "MIC": "0.25 µg/mL"}
{"test system": "Candida tropicalis isolate 112 (ERG11 copies: 5, Erg11p: Y132F, S154F (heterozygous))", "MIC": "≥ 8 mg/L [R]"}
{"test system": "Candida tropicalis isolate 367 (ERG11 copies: 2, Erg11p: no key change)", "MIC": "0.12 mg/L [S]"}
{"test system": "Candida tropicalis isolate 235 (ERG11 copies: 2, Erg11p: no key change)", "MIC": "0.06 mg/L [S]"}
{"compound": "CC[C@@H]([C@H](C)O)n1ncn(-c2ccc(N3CCN(c4ccc(OC[C@@H]5CO[C@@](Cn6cncn6)(c6ccc(F)cc6F)C5)cc4)CC3)cc2)c1=O [posaconazole]", "test": "CLSI broth microdilution."}
{"test system": "Candida tropicalis isolate 402 (ERG11 copies: 2, Erg11p: no key change)", "MIC": "0.12 mg/L [S]"}
{"test system": "Candida tropicalis isolate 27 (ERG11 copies: 2, Erg11p: no key change)", "MIC": "≥ 8 mg/L [R]"}
{"test system": "Candida tropicalis isolate 99 (ERG11 copies: 2, Erg11p: no key change)", "MIC": "0.06 mg/L [S]"}
{"test system": "Candida tropicalis isolate 340 (ERG11 copies: 2, Erg11p: no key change)", "MIC": "0.25 mg/L [S]"}
{"test system": "Candida tropicalis isolate 410 (ERG11 copies: 8, Erg11p: Y132F, S154F (heterozygous))", "MIC": "1 mg/L [R]"}
{"test system": "Candida tropicalis isolate 416 (ERG11 copies: 2, Erg11p: no key change)", "MIC": "0.25 mg/L [S]"}
{"test system": "Candida tropicalis isolate 318 (ERG11 copies: 2, Erg11p: no key change)", "MIC": "0.12 mg/L [S]"}
{"test system": "Candida tropicalis isolate 320 (ERG11 copies: 2, Erg11p: no key change)", "MIC": "0.25 mg/L [S]"}
{"test system": "Candida tropicalis isolate 226 (ERG11 copies: 2, Erg11p: no key change)", "MIC": "0.5 mg/L [R]"}
{"test system": "Candida tropicalis isolate 266 (ERG11 copies: 2, Erg11p: no key change)", "MIC": "0.25 mg/L [S]"}
{"test system": "Candida tropicalis isolate 271 (ERG11 copies: 2, Erg11p: no key change)", "MIC": "0.03 mg/L [S]"}
{"test system": "Candida tropicalis isolate 63 (ERG11 copies: 2, Erg11p: no key change)", "MIC": "0.12 mg/L [S]"}
{"test system": "Candida tropicalis isolate 386 (ERG11 copies: 2, Erg11p: no key change)", "MIC": "0.12 mg/L [S]"}
